According to the supplement of paper PMC8728848:
The list shows a part of the results.

Columns and labels:
Experiment in all cases: glycan array binding signal (z-score within array); higher = stronger binding
Settings in all cases: glycan notation: IUPAC condensed, linker removed
[1] = molecular target: Fuc(a1-2)Gal
Procedure, shortened: (§1)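 Arrays were curated from the Consortium for Functional Glycomics database, 3228 in total, and kept only where the protein sequence was available. Binding is expressed as a within-array Z-score. This score was averaged across arrays of the same protein sequence at different concentrations or buffers and across linkers, and negative values can be read as non-binding.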

[2] = molecular target: Fuc(a1-2)Gal(b1-3)GalNAc
Procedure, shortened: as §1

[3] = molecular target: Fuc(a1-2)Gal(b1-3)GalNAc(a1-3)[Fuc(a1-2)]Gal(b1-4)Glc
Procedure, shortened: as §1

[4] = molecular target: Fuc(a1-2)Gal(b1-3)GalNAc(a1-3)[Fuc(a1-2)]Gal(b1-4)GlcNAc
Procedure, shortened: as §1

[5] = molecular target: Fuc(a1-2)Gal(b1-3)GalNAc(b1-3)Gal
Procedure, shortened: as §1

[6] = molecular target: Fuc(a1-2)Gal(b1-3)GalNAc(b1-3)Gal(a1-4)Gal(b1-4)Glc
Procedure, shortened: as §1

[7] = molecular target: Fuc(a1-2)Gal(b1-3)GalNAc(b1-4)[Neu5Ac(a2-3)]Gal(b1-4)Glc
Procedure, shortened: as §1

[8] = molecular target: Fuc(a1-2)Gal(b1-3)GlcNAc
Procedure, shortened: as §1

[9] = molecular target: Fuc(a1-2)Gal(b1-3)GlcNAc(b1-2)Man(a1-3)[Fuc(a1-2)Gal(b1-3)GlcNAc(b1-2)Man(a1-6)]Man(b1-4)GlcNAc(b1-4)GlcNAc
Procedure, shortened: as §1

[10] = molecular target: Fuc(a1-2)Gal(b1-3)GlcNAc(b1-2)Man(a1-3)[Fuc(a1-2)Gal(b1-3)GlcNAc(b1-2)Man(a1-6)]Man(b1-4)GlcNAc(b1-4)[Fuc(a1-6)]GlcNAc
Procedure, shortened: as §1

[11] = molecular target: Fuc(a1-2)Gal(b1-3)GlcNAc(b1-3)Gal(b1-4)Glc
Procedure, shortened: as §1

[12] = molecular target: Fuc(a1-2)Gal(b1-3)GlcNAc(b1-3)GalNAc
Procedure, shortened: as §1

[13] = molecular target: Fuc(a1-2)Gal(b1-3)GlcNAc(b1-3)[Fuc(a1-2)Gal(b1-3)GlcNAc(b1-6)]GalNAc
Procedure, shortened: as §1

[14] = molecular target: Fuc(a1-2)Gal(b1-3)GlcNAc(b1-3)[Gal(b1-4)GlcNAc(b1-6)]Gal(b1-4)Glc
Procedure, shortened: as §1

[15] = molecular target: Fuc(a1-2)Gal(b1-3)GlcNAc(b1-3)[Neu5Ac(a2-6)Gal(b1-4)GlcNAc(b1-6)]Gal(b1-4)Glc
Procedure, shortened: as §1

[16] = molecular target: Fuc(a1-2)Gal(b1-3)GlcNAc6S
Procedure, shortened: as §1

[17] = molecular target: Fuc(a1-2)Gal(b1-3)[Fuc(a1-4)]GlcNAc
Procedure, shortened: as §1

[18] = molecular target: Fuc(a1-2)Gal(b1-3)[Fuc(a1-4)]GlcNAc(b1-2)Man(a1-3)[Fuc(a1-2)Gal(b1-3)[Fuc(a1-4)]GlcNAc(b1-2)Man(a1-3)]Man(b1-4)GlcNAc(b1-4)GlcNAc
Procedure, shortened: as §1

[19] = molecular target: Fuc(a1-2)Gal(b1-3)[Fuc(a1-4)]GlcNAc(b1-2)Man(a1-3)[Fuc(a1-2)Gal(b1-3)[Fuc(a1-4)]GlcNAc(b1-2)Man(a1-6)]Man(b1-4)GlcNAc(b1-4)[Fuc(a1-6)]GlcNAc(b1-4)[Fuc(a1-6)]GlcNAc
Procedure, shortened: as §1

[20] = molecular target: Fuc(a1-2)Gal(b1-3)[Fuc(a1-4)]GlcNAc(b1-3)[Fuc(a1-3)[Gal(b1-4)]GlcNAc(b1-6)]Gal(b1-4)Glc
Procedure, shortened: as §1

[21] = molecular target: Fuc(a1-2)Gal(b1-3)[Fuc(a1-4)]GlcNAc(b1-3)[Gal(b1-4)GlcNAc(b1-6)]Gal(b1-4)Glc
Procedure, shortened: as §1

[22] = molecular target: Fuc(a1-2)Gal(b1-4)Glc
Procedure, shortened: as §1

[23] = molecular target: Fuc(a1-2)Gal(b1-4)Glc6S
Procedure, shortened: as §1

[24] = molecular target: Fuc(a1-2)Gal(b1-4)GlcNAc
Procedure, shortened: as §1

[25] = molecular target: Fuc(a1-2)Gal(b1-4)GlcNAc(b1-2)Man
Procedure, shortened: as §1

[26] = molecular target: Fuc(a1-2)Gal(b1-4)GlcNAc(b1-2)Man(a1-3)[Fuc(a1-2)Gal(b1-4)GlcNAc(b1-2)Man(a1-6)]Man(b1-4)GlcNAc(b1-4)GlcNAc
Procedure, shortened: as §1

[27] = molecular target: Fuc(a1-2)Gal(b1-4)GlcNAc(b1-2)Man(a1-3)[Fuc(a1-2)Gal(b1-4)GlcNAc(b1-2)Man(a1-6)]Man(b1-4)GlcNAc(b1-4)[Fuc(a1-6)]GlcNAc
Procedure, shortened: as §1

[28] = molecular target: Fuc(a1-2)Gal(b1-4)GlcNAc(b1-2)[Fuc(a1-2)Gal(b1-4)GlcNAc(b1-4)]Man(a1-3)[Fuc(a1-2)Gal(b1-4)GlcNAc(b1-2)Man(a1-6)]Man(b1-4)GlcNAc(b1-4)GlcNAc
Procedure, shortened: as §1

[29] = molecular target: Fuc(a1-2)Gal(b1-4)GlcNAc(b1-3)Gal(b1-4)GlcNAc
Procedure, shortened: as §1

[30] = molecular target: Fuc(a1-2)Gal(b1-4)GlcNAc(b1-3)Gal(b1-4)GlcNAc(b1-2)Man(a1-3)[Fuc(a1-2)Gal(b1-4)GlcNAc(b1-3)Gal(b1-4)GlcNAc(b1-2)Man(a1-6)]Man(b1-4)GlcNAc(b1-4)GlcNAc
Procedure, shortened: as §1

B1: TIM1 (protein)
chain: ADGIQSVKVGGEAGPSVTLPCHYSGAVTSMCWNRGSCSLFTCQNGIVWTNGTHVTYRKDTRYKLLGDLSRRDVSLTIENTAVSDSGVYCCRVEHRGWFNDMKITVSLEIVPPHHHHHH
glycan array binding signal (z-score) [1]: -0.095
glycan array binding signal (z-score) [2]: -0.179
glycan array binding signal (z-score) [3]: -0.288
glycan array binding signal (z-score) [4]: -0.281
glycan array binding signal (z-score) [5]: 0.033
glycan array binding signal (z-score) [6]: -0.224
glycan array binding signal (z-score) [7]: -0.249
glycan array binding signal (z-score) [8]: -0.162
glycan array binding signal (z-score) [9]: -0.194
glycan array binding signal (z-score) [10]: -0.132
glycan array binding signal (z-score) [11]: -0.236
glycan array binding signal (z-score) [12]: -0.153
glycan array binding signal (z-score) [13]: 0.122
glycan array binding signal (z-score) [14]: -0.272
glycan array binding signal (z-score) [15]: -0.234
glycan array binding signal (z-score) [16]: 0.045
glycan array binding signal (z-score) [17]: -0.2
glycan array binding signal (z-score) [18]: -0.011
glycan array binding signal (z-score) [19]: 0.072
glycan array binding signal (z-score) [20]: -0.272
glycan array binding signal (z-score) [21]: -0.253
glycan array binding signal (z-score) [22]: -0.139
glycan array binding signal (z-score) [23]: -0.085
glycan array binding signal (z-score) [24]: -0.205
glycan array binding signal (z-score) [25]: -0.282
glycan array binding signal (z-score) [26]: -0.202
glycan array binding signal (z-score) [27]: -0.244
glycan array binding signal (z-score) [28]: 0.063
glycan array binding signal (z-score) [29]: -0.308
glycan array binding signal (z-score) [30]: 0.01
